Measured values reported in PubChem BioAssay AID1963576 (National Center for Advancing Translational Sciences (NCATS), 2024).
Among all 46,000 compounds or so, about 60 (0.1%) were called active. About 3% were inconclusive and are not listed. The call rests on the fitted dose curve; in most records, active means well fitted inhibition curve with a large enough effect; inconclusive means small, poorly fitted or top-dose-only effect; inactive means no such curve, though single readings can be large or run the other way. The list shows a part of the results.

Assay: Primary qHTS assay for Inhibitors of ovarian cancer metastasis using an organotypic tumor microenvironment (TME) model. Further: nearly all actives have a fitted effect of over 65% in size.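 On activity change, negative = inhibition: plate controls were DMSO wells for no effect and tomatine positive control wells for full effect.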
Settings: SKOV3ip1-GFP adhesion/invasion on 3D omental model, fluorescence; series mostly up to 45.8 µM; activity change, negative = inhibition: at the top concentration
In short: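 Adhesion/invasion was scored as fixed GFP-labeled SKOV3ip1 cell counts (488/509 nm), normalized to DMSO and tomatine controls. Cancer cells in serum-free medium, with four compound doses (0.36-46 umol/L), sat 2 hr at RT then 16 hr at 37 C on a 48 hr fibroblast/mesothelial/ECM culture.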

Activity change, negative = inhibition, inactive:
COc1ccc(CCNC(=O)CSC2=Nc3ccccc3C3=NC(CCC(=O)NCc4ccccc4)C(=O)N23)cc1OC (stereo unspecified) -2.64%
Cc1ccc(Cl)cc1N1CCN(CCCNc2ncnc3onc(-c4ccc(Cl)cc4)c23)CC1 -2.5%
Cc1noc2ncnc(N3CCCC(C(=O)NC(C)C)C3)c12 (stereo unspecified) 11%
CCOc1ccccc1CNC(=O)c1ccc2c(c1)sc1nc(-c3ccccc3)cn12 -1.48%
CCOC(=O)c1cc(-c2ccccc2)n(CCC(=O)Nc2cc(OCC)ccc2OCC)c1C 7.37%
COc1ccc(NC(=O)c2ccc(NC(=O)CCS(=O)(=O)c3cccs3)cc2)cc1OC -6.68%
CCNC(=O)Nc1ccc(Oc2ncnc(N)c2C=NOC)cc1Cl 5.04%
CCCCCn1c(CCCNC(=O)c2cccc(C)c2)nc2ccccc21 -0.593%
CCOC(=O)c1sc(NC(=O)C(C)Sc2nc(-c3ccccc3)cc(C(F)(F)F)n2)c(C(=O)OC)c1C (stereo unspecified) 67.5%
Cc1c(C)n(Cc2ccccc2)c2ccc(C(=O)NCc3ccc(OC(C)C)cc3)cc12 7.54%
CCN(CC)CCCNC(=O)C1CCN(S(C)(=O)=O)CC1 -8.05%
O=C(CCCCn1c(=O)c2ccccc2n(CC(=O)Nc2ccccc2)c1=O)NCc1ccccc1Cl 11.7%
Cc1cccc(N2CCN(S(=O)(=O)c3ccc4oc(=O)c5ncn(C)c5c4c3)CC2)c1C -5.13%
CCc1nnc2c3ccccc3nc(Nc3ccccc3OC)n12 -4.04%
COc1ccc(Nc2nc3ccc(Cl)cc3n3nnnc23)cc1OC 2.28%
Cc1oc(-c2ccc(C(=O)Nc3cccc(C(F)(F)F)c3)cc2)nc1CSc1ccccc1 -5.82%
O=C(Oc1ccccc1Cl)c1cc(-c2ccc3c(c2)OCCO3)on1 0.392%
Cc1ccc(OCCn2cc(C(=O)c3ccco3)c3ccccc32)cc1C -28%
COC(=O)c1scc(-c2ccc(C)cc2)c1S(=O)(=O)Nc1cccc(Cl)c1C -8.73%
Cc1ccc(NC(=O)c2cnc(N3CCCCC3)c3ccccc23)cc1Cl -14.1%
O=C(CCCc1nc(-c2ccccc2)no1)Nc1cc(C(F)(F)F)cc(C(F)(F)F)c1 -16.2%
COc1ccc(NC(=O)COc2ccc(S(=O)(=O)NC3CCCCC3)cc2)c(OC)c1 -2.51%
Cc1ccc(CNC(=O)Cn2cc(S(=O)(=O)Cc3cccc(Cl)c3)c3ccccc32)cc1 -4.38%
COc1ccc(-c2nc3nc(C)cc(Nc4cccc(C(F)(F)F)c4)n3n2)cc1 -9.67%
Cc1noc(Cn2c(=O)c3ccccc3n(CC(=O)Nc3ccc(F)cc3F)c2=O)n1 5.62%
Cc1sc(-n2cccc2)c(C(C)NC(=O)Nc2ccccc2Cl)c1C (stereo unspecified) -2.23%
CCOc1ccc(NC(=O)c2cc(S(=O)(=O)N3CCCC3)c[nH]2)cc1 -11.5%
Cc1cc(C)c(Cn2c3ccccc3c3cnn(CC(=O)NCc4ccc(Cl)cc4)c(=O)c32)c(C)c1 -19.1%
COC(=O)c1ccccc1NC(=O)c1cc2c(s1)-c1ccccc1OC2 -21.4%
COc1ccc(-c2c(C#N)c(SCC(=O)Nc3ccc(Br)cc3)nc(C)c2C(=O)Nc2ccccc2)cc1 8.76%
O=C(CN(c1cc(C(F)(F)F)ccc1Cl)S(=O)(=O)c1ccccc1)NCCc1ccccc1 23%
O=C(CSc1nc(-c2ccccc2)c2ccccc2n1)Nc1ccc(F)cc1 -12.4%
OC(CN1CCN(c2cccc(Cl)c2)CC1)C(c1ccccc1)c1ccccc1 (stereo unspecified) -20.7%
COc1ccc(NC(=O)c2c(C)oc3ccc(O)c(CN4CCCCCC4)c23)cc1 3.08%
CCOc1ccc(Br)cc1S(=O)(=O)Nc1cccc(-c2ccc(OC)nn2)c1 4.29%
Cc1ccc(-c2ccc(CCC(=O)O)n2-c2cccc(C)c2C)cc1 -2.14%
Cc1ccc(Cl)cc1N1CCN(C(=O)c2ccc3c(c2)N(Cc2ccccc2)CCS3)CC1 3.19%
COc1cccc(NC(=O)Cc2csc(COc3cccc(C)c3)n2)c1 -12.6%
CCOC(=O)c1c(N)n(-c2cc(C)cc(C)c2)c2nc3ccccc3nc12 0.294%
COc1ccc(OC)c(NC(=O)CCNC(=O)Cn2cnc3ccccc3c2=O)c1 -3.12%
O=C(NCCc1ccccc1)c1nn(-c2ccccc2Cl)nc1CO -5.82%
O=C(Nc1cc(Cl)cc(Cl)c1)c1cc(S(=O)(=O)N2CCC3(CC2)OCCO3)ccc1F -20.6%
Fc1ccc(Nc2c(-c3ccccn3)nc3ccc(Cl)cn23)cc1 6.99%
Cc1cn2c(=O)cc(COC(=O)c3ccc(NC(=O)C(C)Oc4ccccc4)cc3)nc2s1 (stereo unspecified) -4.23%
COc1ccc(CCNC(=O)c2cc(=O)[nH]c3ccc(S(=O)(=O)N4CCCCC4C)cc23)cc1OC (stereo unspecified) 9.57%
Cc1ccc(C)c(-n2nnc(C(=O)Nc3ccc(Br)cc3)c2C)c1 -5.04%
COCCn1c(C)cc(O)c(C(c2ccc(OC)cc2)N2CCN(c3ccccc3)CC2)c1=O (stereo unspecified) 3.07%
COc1ccc(NC(=O)CN(C)S(=O)(=O)c2ccc3c(c2)c(=O)n(C)c(=O)n3C)cc1 67.7%
NS(=O)(=O)c1ccc(NC(=O)c2csnn2)cc1 0.459%
CC1CCCCN1C(=O)CSc1c2c(nc3cc(Cl)ccc13)CCCC2 (stereo unspecified) 4.54%

outcome, inactive:
CCOc1ccc(C(=O)Nc2ccc(-c3nc4cc(C)ccc4o3)cc2)cc1
COc1ccc(-c2nc3scc(CCNS(=O)(=O)c4ccc(F)c(C(F)(F)F)c4)n3n2)cc1OC
CC1=C(C(=O)Nc2ccccc2C)C(c2ccco2)n2ncnc2N1 (stereo unspecified)
Cc1cc(C)c(S(=O)(=O)NCCc2cc3ccc(C)cc3[nH]c2=O)c(C)c1
CC1=C(C(=O)N2CCCCC2)C(c2cccc(Cl)c2)n2c(nc3ccccc32)N1 (stereo unspecified)
Cc1ccc(C)c(N2CCN(C(=O)CN3C(=O)COc4ccc(S(=O)(=O)N5CCC(C)CC5)cc43)CC2)c1
CCn1nnc2cc(C(=O)Nc3ccc(OC)cc3)ccc21
COc1ccc(-n2c(=O)c3c4c(sc3n(Cc3ccc(C(C)(C)C)cc3)c2=O)CCC4)c(OC)c1
Cc1ccc(N2CCN(S(=O)(=O)c3ccc(-n4cnnn4)cc3)CC2)c(C)c1
CCOCCCNC(=O)c1c(NC(=O)c2nc(SC)ncc2Cl)sc2c1CCCC2
CC(C)c1ccc(NC(=O)c2cnc3sc(N4CCOCC4)nn3c2=O)cc1
